Results published in PubChem BioAssay AID1508623 (National Center for Advancing Translational Sciences (NCATS), 2021).
The campaign covered roughly 48,000 compounds. About 450 (0.94%) were called active. Not shown: some 19% with an inconclusive outcome. Calls come from the whole dose curve; as a rule, active = well fitted inhibition curve with a large enough effect; inconclusive = small, poorly fitted or top-dose-only effect; inactive = no such curve, though single readings can be large or run the other way. Some of the results follow.

experiment: Primary qHTS for Identification of Small Molecule Inhibitors of Huntingtin Promoter Activity; conditions: HEK293 HTT promoter firefly luciferase reporter (activity 0% = vehicle and -100% = no light), 24 h; series mostly up to 57.5 µM; activity change, negative = inhibition: at the top concentration; note: nearly all actives have a fitted effect of over 50% in size
Method in brief: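 HEK293 luciferase promoter-reporter cells (2,500/well) plated 24 h, then compounds added at up to 57.5 uM final for 24 h at 37 °C. Firefly luminescence by Dual-Glo, normalized to vehicle (0%) and zero RLU (-100%).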

Activity change, negative = inhibition, inactive:
Cc1ccc(NC(=O)Cn2c(=O)n(Cc3nc(C)no3)c(=O)c3cc4c(cc32)OCO4)c(C)c1 -14.8%
N#Cc1nc(COc2cccc(Cl)c2)oc1NCCc1ccccc1 1.53%
CCOc1ccccc1C(=O)N(Cc1cc(OC)c(OC)c(OC)c1)c1ccccn1 -8.14%
COC(=O)CNC(=O)C1CCN(S(=O)(=O)c2cccc3nsnc23)CC1 -5.24%
Cc1ccc(C(=O)c2c(N)c(C(=O)Nc3ccccc3Cl)c3ccccn23)cc1 -0.145%
Cc1ccc(CCNC(=O)c2ccc3c(c2)nc2n3CCCCC2)cc1 -12.9%
Cc1sc2ncn(CC(=O)Nc3cccc(C(F)(F)F)c3)c(=O)c2c1S(=O)(=O)N1CCN(C)CC1 -10.4%
COc1cc2c(Nc3ccc(Br)cc3F)ncnc2cc1OCC1CCN(C)CC1
CC1=C(C(=O)Nc2ccc(C)cc2C)C(c2ccc([N+](=O)[O-])cc2)n2ncc(C(=O)Nc3ccc(F)cc3)c2N1 (stereo not given) 0.505%
Cc1ccc(-n2c(=O)c3c(cnn3C)n(CC(=O)Nc3ccc(C)cc3C)c2=O)cc1 -6.36%
Cc1ccccc1Cc1c(C)nc2nc(SCC(=O)N(C)c3ccccc3)nn2c1C -18.8%
Cc1c(C(=O)N2CCC(C)CC2)c(S(=O)(=O)NCc2ccc(Cl)cc2)c(C)n1C -23%
CCN(CC)c1ccc2cc(-c3nc(-c4cccs4)no3)c(=O)oc2c1 54.8%
CC1CCN(S(=O)(=O)c2ccc3c(c2)c(=O)c(C(=O)NCCc2ccccc2)cn3C)CC1 -3.86% [at 11.5 µM]
COc1ccccc1CNC(=O)c1c(O)nc2c(C)cccn2c1=O 6.04%
CN(C)CCNC(=O)c1ccc2c(c1)NC(=O)C(CS(=O)(=O)Cc1cccc(Br)c1)N2 (stereo not given) -7.02%
COc1ccccc1CNC(=O)CN(C)c1nn2c(=O)cc(C)nc2s1 -8.96%
CCc1ccc(NC(=O)C2CCCN2S(=O)(=O)c2ccc3c(c2)n(C)c(=O)c(=O)n3C)cc1 (stereo not given) 12.4%
CC(=O)c1ccc(NC(=O)CSc2nnc3ccc(-c4ccc(Br)cc4)nn23)cc1 -19.8%
COc1ccccc1NC(=O)CCC(=O)N1CC(C)Oc2ccc(C)cc21 (stereo not given) -25.6%
COc1ccc(C(=O)Nc2nc3nc(C)c(Cl)c(=O)n3[nH]2)cc1 0.747%
Cc1ccc2nc(Cl)c3cc(C(=O)NC4CCCCC4)sc3c2c1 -1.88%
COc1ccc(OC)c(NC(=O)C(NS(=O)(=O)c2ccc3c(c2)CCCC(=O)N3)C(C)C)c1 (stereo not given) -11.1%
CN1CCc2nc3sc(C(=O)Nc4c(F)cccc4F)c(N)c3cc2C1 64.8%
NS(=O)(=O)c1ccc(Cl)c(S(N)(=O)=O)c1 -2.99%
Cc1ccc(-c2cnc(NCc3c(F)cccc3Cl)n2C)cc1 21.9%
CCOc1ccc(NC(=O)Cn2c(=O)c(CNc3ccc(OC)cc3)cc3ccc(OC)cc32)cc1 -14.6%
CCOC(=O)c1cc(S(=O)(=O)N2CCN(c3cc(Cl)ccc3C)CC2)[nH]n1 -16.6%
CCc1ccc(OCC(=O)Nc2c(C(=O)c3ccccc3)oc3ccccc23)cc1 11.2%
Cc1nc(-c2cccc(S(=O)(=O)N3CCC(C(=O)NCc4ccccc4)CC3)c2)no1 -33.5%
Cc1cc(=O)n2nc(N3CCC(C(=O)NCc4ccccc4Cl)CC3)sc2n1 -13.1%
Cc1ccccc1NC(=O)CCc1c(C)nc2c(c1C)c(=O)n(C)c(=O)n2C -9.7%
CCCN(C(=O)Cn1cnc2sc(C)c(S(=O)(=O)N3CCN(c4ncccn4)CC3)c2c1=O)c1cccc(C)c1 -15.2%
Cc1cccc(CN2C(=O)c3ccccc3S(=O)(=O)c3ccc(C(=O)N4CCCC4)cc32)c1 -19.4%
Cc1c(C(=O)NN2CCCCC2)nn(-c2ccc(Cl)cc2Cl)c1-c1ccc(Cl)cc1 -13.4%
CCN(CC)S(=O)(=O)c1ccc(NC(=O)[C@H](CCSC)N2Cc3ccccc3C2=O)cc1 -20.1%
Cc1ccc(S(=O)(=O)c2nnn3c2nc(N2CCCCC2)c2sccc23)cc1 1.89%
CCn1ccc2cc(S(=O)(=O)N3CCCN(C(=O)Nc4ccc(C)cc4)CC3)ccc21 -26.7%
Cc1cc(C)cc(N(C)S(=O)(=O)c2nnc(NC(=O)COc3ccc(Cl)cc3)s2)c1 -1.82%
CC(=O)c1cccc(NC(=O)CN2C(=O)CN(C)C(=O)c3ccccc32)c1 4.21%
Cc1cccc(Cn2c(-c3cccs3)nc3ccccc32)c1 -45.2%
CCOc1ccc(Cn2c(CNS(=O)(=O)c3cccs3)nc3cccnc32)cc1 -7.45%
Cc1ccc(N2CCN(c3cc(C)nc4c(-c5ccc(Cl)cc5)c(C)nn34)CC2C)cc1 (stereo not given) -15.4%
NC(=O)Cn1c(=O)n(-c2ccc(F)c(Cl)c2)c(=O)c2sc3ccccc3c21 -27.7%
CCc1nc(SCc2cc(=O)c3cc(F)ccc3[nH]2)n[nH]1 -1.69%
Cc1ccc(NC(=O)Cn2ncc3c4ccccc4n(Cc4ccccc4)c3c2=O)cc1Cl 4.07%
Cc1cn2c(=O)c(S(=O)(=O)NC(C)c3ccccc3)c(C)nc2s1 (stereo not given) -7.69%
CCCCCCCCCCCCOCCOCCOCCOCCOCCOCCOCCOCCOCCO -29.3%
CS(=O)(=O)c1ccc(-c2cn3ccccc3n2)cc1 6.72%
Cc1cc2nc(-c3cccc(NC(=O)COc4ccc(C(C)C)cc4)c3)oc2cc1C 74.3%
COc1ccc(N2CCN(C(=O)c3c(C)oc4nc(C)nc(N5CCCC5)c34)CC2)cc1 -0.0231%
Cc1ccc(N(C)S(=O)(=O)c2c(-c3ccccc3)csc2C(=O)O)cc1 -17.4%
COc1ccc(-c2nc(C)c(CCNC(=O)c3cccs3)s2)cc1 1.13%
Cc1ccccc1-c1nnc(SCC(=O)N2CCCc3ccccc32)o1 36.5%
Cc1ccc(NC(=O)N2CCC(CN3CCCCCC3)CC2)c(Cl)c1 3.52%
CC(C)c1ccc(N2C(=O)CSC23C(=O)N(Cc2ccccc2F)c2ccccc23)cc1 (stereo not given) -19.7%
CCCNC(=O)c1c(NC(=O)c2ccccc2F)sc2c1CCCCC2 1.8%
Cc1cccc(C(=O)OCc2cc(=O)n3nc(C4CC4)sc3n2)c1 -0.932%
COc1ccc(-c2nc(SCC(=O)Nc3ccc4c(c3)OCO4)c(-c3ccc(F)cc3)[nH]2)cc1OC -19.6%
CCOc1ccccc1NC(=O)CCc1nc(-c2cccc(C)c2)no1 -2.4%
COc1cc2c(cc1OC)CC(=O)N(CCCN(C)C[C@H]1Cc3cc(OC)c(OC)cc31)CC2 -7.65%
COc1cccc(-n2c(=O)c3sccc3n(Cc3cc(=O)n4cc(Cl)ccc4n3)c2=O)c1 -4.39%
CCC(=O)N1CCc2cc(S(=O)(=O)NCCC(=O)NCc3ccc(OC)cc3)ccc21 -26.3%
Cc1ccc(C(=O)Nc2cc3cc(Cl)ccc3oc2=O)cc1 -10.1%
Cc1ccc(-c2nc(CCNC(=O)C(=O)Nc3ccc(F)cc3F)cs2)cc1 -4.91%
Cc1ccc2c(c1)N(CC(=O)NCCCN1CCCCC1)C(=O)c1cccnc1O2 -0.849%
COc1ccccc1NCc1nnc2n1CCCCC2 -4.68%
COc1ccccc1CNC(=O)CCCN1C(=O)CCn2nc(-c3cn(C)c4ccccc34)cc21 -12.1%
CC(C)C(=O)Nc1c(C(=O)N2CCN(c3ccccc3F)CC2)oc2ccccc12 -12%
Fc1ccc(C(c2nnc(-c3ccccc3)o2)N2CCN(c3ccccc3)CC2)c(Cl)c1 (stereo not given) -34.9%
Cc1ccc(-c2nc3sc(CCNC(=O)c4ccco4)c(C)n3n2)cc1 -21.1%
COc1cc([C@@H]2c3cc4c(cc3[C@H](O)[C@H]3COC(=O)[C@@H]23)OCO4)cc(OC)c1OC -32.8%
COc1cc(Cl)c(C)cc1NC(=O)c1nn(-c2ccc(C)cc2)c(=O)n(C)c1=O 8.78%
Cc1ccc(CSc2nc3ccncc3n2Cc2nc(-c3ccc(Cl)cc3)oc2C)cc1 13.5%
CCOc1ccc(N2CC(NC(=O)c3cc4ccccc4o3)CC2=O)cc1 (stereo not given) -1.8%
COc1cccc(NC(=O)CSc2c(C)cnc3c2c(=O)n(C)c(=O)n3C)c1 -18.5%
CCCOC(=O)c1c(NC(=O)c2cc3nc(-c4ccc(OC)cc4)cc(C(F)(F)F)n3n2)sc2c1CCCC2 -9.67%
CCOC(=O)c1ccc(NC(=O)C(=O)NCCc2ccc(OC)cc2)cc1 -0.753% [at 11.5 µM]
COc1ccc2oc(=O)c(C(=O)N3CCN(c4cc(Cl)ccc4Cl)CC3)cc2c1 -8.75%
COc1ccccc1N1CCN(C(=O)c2cnn(C(C)(C)C)c2C2CCN(C(=O)OC(C)(C)C)CC2)CC1 -11.7%
COc1ccc(Nc2cc(C(=O)NCc3cccs3)c3ccccc3n2)cc1 13.6%
CCCCOC(=O)Cn1nnc2sc(-c3ccccc3)cc2c1=O 9.41%
CN1CCN(C(=O)C(=O)Nc2c3c(nn2-c2cccc(Cl)c2)CSC3)CC1 -12.6%
O=C(CCCCn1c(=O)c2ccccc2n(CC(=O)Nc2ccc(F)cc2F)c1=O)NCc1ccccc1Cl -8.23%
O=C(CSc1ncc(-c2ccccc2)[nH]1)Nc1ccc(F)cc1F -4.93%
Cc1ccc(Cn2c(=O)n(CCc3ccccc3)c(=O)c3c(C)c(C)sc32)cc1 -20.9%
CCc1ccccc1N1C(=O)N(CC(=O)c2ccc(Cl)cc2)c2ccccc2S1(=O)=O -20.4%
CCOC(=O)c1c(C)[nH]c(C)c1S(=O)(=O)N1CCCC(C(=O)NCc2ccc(C)cc2)C1 (stereo not given) -9.16%
COC(=O)c1c(SC)nc2ccccc2c1OCc1ccc(C)cc1 1.44%
CCOC(=O)Cn1c(=O)oc2cc(S(=O)(=O)N3CCCC(C)C3)ccc21 (stereo not given) -21.1%
CCOC(=O)c1cc(S(=O)(=O)N2CCN(c3cccc(OC)c3)CC2)[nH]n1 -31.1%
CCCCn1cc(S(=O)(=O)c2ccc(Cl)cc2)c(=O)c2cc(F)c(N3CCCC(C)C3)cc21 (stereo not given) 0.521%
COC(=O)c1c(-c2ccc(Cl)cc2)noc1N1CCN(c2cccc(C)c2C)CC1 -4.52%
CCc1cnc2c(c1SCC(=O)Nc1ccc(OC)c(OC)c1)c(=O)n(C)c(=O)n2C -21%
COc1cccc(CNC(=O)Cn2nc3c(cc2=O)CCCC3)c1OC 7.88%
